Experimental data: PubChem BioAssay AID624417 (National Center for Advancing Translational Sciences (NCATS), 2012)
Screen size: about 410,000 compounds; about 6,400 (1.6%) were called active. The inconclusive results got no clear call from the source; some entries with a clear call stand among them for comparison. Calls follow the shape of the dose curve; as a rule, active = well fitted inhibition curve with a large enough effect; inconclusive = small, poorly fitted or top-dose-only effect; inactive = no such curve, though single readings can be large or run the other way. No potency is given beside an inconclusive call; the fits are too rough.

Biological target: Glucagon-like peptide 1 receptor (Homo sapiens) (UniProt P43220)
Test: qHTS of GLP-1 Receptor Inverse Agonists (Inhibition Mode); also: nearly all actives have a fitted effect of over 55% in size
Conditions: HEK293 GLP-1R CRE-luciferase, luminescence, 24 h, GLP-1R form is constitutively active; series mostly up to 38.3 µM
Procedure, shortened: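 Readout was luciferase luminescence, measured 12 min after detection reagent at room temperature. Beforehand, GLP-1R reporter HEK293 cells had sat 12 h, then received compounds for 24 hr at 37 deg C.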
Potency is read from the fitted curve at half-maximal effect; tags tell the direction and shape of the fitted curve.

Sequence of UniProt P43220 (P43220 whole entry, looked up): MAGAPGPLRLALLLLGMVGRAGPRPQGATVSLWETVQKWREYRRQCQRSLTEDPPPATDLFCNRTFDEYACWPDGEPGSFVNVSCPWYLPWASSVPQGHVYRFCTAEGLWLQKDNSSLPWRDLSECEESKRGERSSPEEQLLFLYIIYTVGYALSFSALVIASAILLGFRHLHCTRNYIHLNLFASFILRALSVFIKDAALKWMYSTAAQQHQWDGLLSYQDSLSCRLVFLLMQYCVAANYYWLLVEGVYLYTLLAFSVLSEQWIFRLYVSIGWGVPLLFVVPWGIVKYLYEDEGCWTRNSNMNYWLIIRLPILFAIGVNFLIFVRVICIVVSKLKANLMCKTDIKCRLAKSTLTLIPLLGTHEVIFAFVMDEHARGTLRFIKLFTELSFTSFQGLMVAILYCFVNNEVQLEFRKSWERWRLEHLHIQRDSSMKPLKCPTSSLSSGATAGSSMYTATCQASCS

Compound	Potency
Cc1cc(Br)ccc1OCC(=O)N1CCCCCC1	inconclusive [inhibitor, partial curve, poor fit]
CCCC(c1nnnn1Cc1ccco1)N1CCN(c2ccccc2)CC1 (stereo not given)	inactive
CC(=O)Oc1ccc(-c2csc(Nc3cccc(C)n3)n2)cc1	inconclusive [inhibitor, single point]
CCOC(=O)c1c(C)[nH]c(C)c1S(=O)(=O)N(C)CC(=O)Nc1ccc(C)cc1C	inactive
Nc1ccc(-c2nc3ccc(-c4nc5ccccc5o4)cc3[nH]2)cc1	inconclusive [inhibitor, single point]
CC(C)CCNC(=O)c1onc(CSc2ccc(F)c(F)c2)c1C(=O)NCCC(C)C	inconclusive [inhibitor, single point]
OC(COc1ccc2cc(Br)ccc2c1)CN1CCCC1 (stereo not given)	inconclusive [inhibitor, full curve, poor fit]
CN1CCN(C(=S)c2ccc(-c3cccc(Cl)c3Cl)o2)CC1	inconclusive [inhibitor, partial curve, poor fit]
Cc1ncoc1C(=O)N1CCCC(C(=O)c2cccc(C(F)(F)F)c2)C1 (stereo not given)	inconclusive [inhibitor, partial curve, poor fit]
COc1ccc(OC)c(NC(=O)CN(c2ccc(C(C)C)cc2)S(=O)(=O)c2c(C)noc2C)c1	inconclusive [inhibitor, partial curve, poor fit]
OC(c1ccc(Cl)c(Cl)c1)c1ncc(-c2ccccc2F)[nH]1 (stereo not given)	inconclusive [inhibitor, partial curve, poor fit]
O=[N+]([O-])c1ccc(Nc2nc(N/N=C\c3ccc4c(c3)OCO4)nc(N3CCCCC3)n2)cc1	inconclusive [inhibitor, full curve]
COCc1c(C(=O)OCC(=O)c2ccc[nH]2)oc2ccccc12	inconclusive [inhibitor, single point]
Clc1cccc(CN2CCN(c3nc4nonc4nc3NC3CC3)CC2)c1	inconclusive [inhibitor, partial curve, poor fit]
CCOc1ccc(-n2nc3ccc(NC(=O)c4ccc5c(c4)OCCO5)cc3n2)cc1	inactive
Cc1ccsc1C(=O)OC(C)C(=O)Nc1ccc(Cl)cn1 (stereo not given)	inconclusive [inhibitor, single point]
O=C(Cc1ccccc1)NC(Nc1cccc2ccccc12)C(Cl)(Cl)Cl (stereo not given)	inconclusive [inhibitor, partial curve, poor fit]
CSc1ccccc1OCc1cc(C(=O)NC2CCOC(C)(C)C2)no1 (stereo not given)	inactive
Cc1ccc(NC(=O)c2ccc(OC(F)F)cc2)cc1S(=O)(=O)N(C)C	inconclusive [inhibitor, single point]
Fc1ccc(-c2noc3ncnc(NCc4ccc(Cl)cc4)c23)cc1	inactive

Compound	Potency
COc1nnc(-c2ccc(N3CCCCC3)c(N)c2)c2ccccc12	inconclusive [inhibitor, partial curve, poor fit]
CN(Cc1ccccc1)C(=O)c1ccc2c(c1)N(Cc1ccccc1Cl)C(=O)c1ccccc1S2	inconclusive [inhibitor, single point]
CCCc1ccc(-c2cc(C(=O)N/N=C/c3ccc([N+](=O)[O-])o3)c3ccccc3n2)cc1	inconclusive [inhibitor, full curve, poor fit]
COc1ccc(OCC(NS(=O)(=O)c2ccc(-n3cnnn3)cc2)C(C)C)cc1 (stereo not given)	inconclusive [inhibitor, partial curve, poor fit]
COC(=O)[C@]12CCCCC=C1N(Cc1ccccc1)C(=O)[C@H](CC(=O)NCC1CCCCC1)C2	inconclusive [inhibitor, partial curve]
O=C(N/N=C/c1cccs1)c1ccccn1	inconclusive [inhibitor, single point]
CC(=O)Nc1cccc(-c2csc(C(O)c3ccc(F)c(F)c3)n2)c1 (stereo not given)	inconclusive [inhibitor, single point]
CCN1C(=O)c2ccccc2S(=O)c2ccc(C(=O)N3CCN(c4cc(Cl)ccc4C)CC3)cc21 (stereo not given)	inconclusive [inhibitor, single point]
O=C(Nc1cc(S(=O)(=O)Nc2ccc(Cl)cc2)ccc1O)c1ccc(F)cc1F	inconclusive [inhibitor, single point]
COC(=O)[C@]12CCCCC=C1N(Cc1ccc(Cl)cc1Cl)C(=O)[C@H](CC(=O)NCCc1ccccc1OC)C2	inconclusive [inhibitor, single point]
COC1=C(Nc2ccccc2)C(=O)C(OC)=C(Nc2ccccc2)C1=O	inactive
CC(C)(C)[C@H](N)C(=O)N[C@H]1CCC2C3CC=C4C[C@@H](O)CC[C@]4(C)C3CC[C@@]21C (stereo not given in full)	inconclusive [inhibitor, partial curve, poor fit]
CCC(Sc1nc(-c2ccccc2F)nc2c1Cc1c(CO)cnc(C)c1O2)C(=O)Nc1cc(C)ccc1C (stereo not given)	inactive
COc1c(C)cc(C(O)c2ncc(-c3ccccc3F)[nH]2)cc1C (stereo not given)	inactive
CCNC(=S)NNC(=O)CCn1c2ccccc2c2ccccc21	inconclusive [inhibitor, full curve, poor fit]
CCN(CC(=O)Nc1cc(Cl)ccc1C)C(=O)CSCc1ccccc1	active: 12.6 µM
O=C(CCCl)Nc1nc2c(s1)CCc1ccccc1-2	inconclusive [inhibitor, partial curve, poor fit]
COc1cc(C(=O)O[C@H]2C/C(C)=C/CC[C@@]3(C)O[C@@H]3[C@H](O)[C@@H]2C(C)C)cc(OC)c1OC	active: 12.6 µM
CNC(=O)c1[nH]cnc1C(=O)NCC(=O)OC(C)(C)C	inactive
CCc1ccccc1NC(=O)c1cnc(N2CCCCC2)c2ccccc12	inconclusive [inhibitor, single point]
